Source: the supplement of paper PMC4967469
By IC50 is meant the dose at which the fit gives 50% viability; a limit (>, <) means that the fit lies beyond the doses tested. For AUC the same curve is integrated over the 256-fold range of doses and scaled to a fraction: 1 means no effect, lower means more sensitive. For part of these data: An inferred top dose comes from the curve model; the source does not state it. For part of these data: Where an entry number is given, a second screen of the drug exists; the two often differ.

Key:
Assay in all cases: Viability of human cancer cell lines after 72 h of drug (GDSC screen)
[1] = compound: CC(C)[C@H](C(=O)Nc1ccc(C(=O)NO)cc1)c1ccccc1 [AR-42]; conditions: top dose 5.12 µM; top dose inferred
Method: (§1)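 Human cancer cell lines in 384-well plates, medium with 10% serum, drug for 72 h over a 256-fold dose range (nine 2-fold or five 4-fold steps up to the top dose). Adherent lines were fixed and stained with the nucleic acid dye Syto60, suspension lines read with resazurin; signal relative to control wells, capped at 0 and 100%. One two-parameter sigmoid per drug and line, fitted in a mixed model over all curves with the slope shared within a line.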

[2] = compound: C[C@]12O[C@H](C[C@]1(O)CO)n1c3ccccc3c3c4c(c5c6ccccc6n2c5c31)CNC4=O [CEP-701]; conditions: top dose 2 µM; top dose inferred
Method: as §1

[3] = compound: Cc1ccc(Nc2nccc(N(C)c3ccc4c(C)n(C)nc4c3)n2)cc1S(N)(=O)=O [Pazopanib]; conditions: top dose 8 µM
Method: as §1

[4] = compound: CS(=O)(=O)N1CCN(Cc2cc3nc(-c4cccc5[nH]ncc45)nc(N4CCOCC4)c3s2)CC1 [GDC0941]; conditions: top dose 4 µM; screen: GDSC drug entry 1527; top dose inferred
Method: as §1

Cell Line	AUC [1]	IC50 [1] [nM]	AUC [2]	IC50 [2] [nM]	AUC [3]	IC50 [3] [nM]	AUC [4]	IC50 [4] [nM]
647-V (bladder, adherent)	0.85	3900	0.759	700	0.921	> 8000	0.81	2120
8505C (thyroid, adherent)	0.61	656	0.672	389	0.952	> 8000	–	–
23132-87 (stomach, adherent)	0.544	423	0.664	364	0.955	> 8000	0.543	328
A704 (kidney, adherent)	–	–	0.759	680	0.649	1270	0.749	1260
ASH-3 (thyroid, adherent)	0.934	> 5120	0.688	419	0.878	> 8000	0.708	968
BICR22 (head and neck, adherent)	0.671	1040	0.724	600	0.972	> 8000	0.643	661
C-4-I (cervix, adherent)	0.946	> 5120	0.606	251	0.981	> 8000	0.925	> 4000
CAL-78 (chondrosarcoma, adherent)	0.9	> 5120	0.83	1520	0.777	3700	0.895	> 4000
CAPAN-1 (pancreas, adherent)	0.708	1330	0.716	552	0.986	> 8000	–	–
CCF-STTG1 (glioma, adherent)	0.988	> 5120	0.839	1380	0.517	555	0.855	3220
COLO-783 (melanoma, adherent)	0.631	726	0.867	1690	0.991	> 8000	0.953	> 4000
Caov-4 (ovary, adherent)	–	–	0.951	> 2000	0.915	> 8000	0.873	> 4000
DIFI (large intestine, adherent)	–	–	0.748	669	–	–	0.608	501
DMS-53 (small cell lung carcinoma, adherent)	0.908	> 5120	0.934	> 2000	0.915	> 8000	0.976	> 4000
DOK (head and neck, adherent)	0.754	2580	0.542	172	0.945	> 8000	–	–
DoTc2-4510 (cervix, adherent)	0.635	737	0.827	1130	0.901	> 8000	–	–
EMC-BAC-1 (lung adenocarcinoma, adherent)	0.682	1120	0.785	982	–	–	0.787	2010
EMC-BAC-2 (lung adenocarcinoma, adherent)	0.544	433	0.486	114	–	–	0.813	2680

Cell Line	AUC [1]	IC50 [1] [nM]	AUC [2]	IC50 [2] [nM]	AUC [3]	IC50 [3] [nM]	AUC [4]	IC50 [4] [nM]
FADU (head and neck, adherent)	0.801	2390	0.606	242	0.952	> 8000	–	–
H513 (mesothelioma, semi-adherent)	0.974	> 5120	0.985	> 2000	0.919	> 8000	0.963	> 4000
HCC1143 (breast, adherent)	0.712	1630	0.797	1410	0.918	> 8000	–	–
HCC-366 (non-small cell lung carcinoma, adherent)	–	–	0.938	> 2000	–	–	0.745	1300
HeLa (cervix, adherent)	0.723	1320	0.723	520	0.93	> 8000	–	–
Hey (ovary, adherent)	0.472	270	0.464	100	–	–	0.774	1480
KNS-62 (lung squamous cell carcinoma, adherent)	–	–	0.851	> 2000	–	–	0.782	2540
MIA-PaCa-2 (pancreas, adherent)	0.739	1670	0.697	474	0.768	3300	–	–
MOLT-13 (T-cell lymphoblastic leukaemia, suspension)	0.116	23.5	0.683	377	–	–	0.919	> 4000
NCC010 (kidney, adherent)	–	–	0.697	467	–	–	0.746	1350
NCC021 (kidney, adherent)	0.498	316	0.892	> 2000	–	–	0.748	1480
NCI-H661 (large cell lung carcinoma, adherent)	0.468	258	0.923	> 2000	0.943	> 8000	–	–
NCI-H1437 (lung adenocarcinoma, adherent)	0.654	872	0.725	563	0.946	> 8000	–	–
NCI-H2085 (lung adenocarcinoma, adherent)	0.795	2610	–	–	0.974	> 8000	0.799	2100
NCI-H2170 (lung squamous cell carcinoma, adherent)	0.79	2400	–	–	0.88	> 8000	0.882	> 4000
NCI-H2228 (lung adenocarcinoma, adherent)	0.835	> 5120	–	–	0.976	> 8000	0.662	894
NUGC-3 (stomach, adherent)	0.71	1360	–	–	0.88	> 8000	0.821	2690
